Experimental data as given in the supplement of paper PMC3334620.
Whole data set: some 33,000 sequences, median “E-score (-0.5 to 0.5)” near -0.053, cut for the highest 2% near 0.37. This is one part of the list.

biological target: Hap1 (UniProt P0CE41); assay: PBM E-score (8-mer binding enrichment) (E-score (-0.5 to 0.5)); higher = stronger / more preferred TF binding; most listed sequences are background and not binding sites; details: protein concentration: 200 nM; construct: GST-DNA-binding domain
UniProt P0CE41, sequence (P0CE41 whole entry, the tested form may be a part): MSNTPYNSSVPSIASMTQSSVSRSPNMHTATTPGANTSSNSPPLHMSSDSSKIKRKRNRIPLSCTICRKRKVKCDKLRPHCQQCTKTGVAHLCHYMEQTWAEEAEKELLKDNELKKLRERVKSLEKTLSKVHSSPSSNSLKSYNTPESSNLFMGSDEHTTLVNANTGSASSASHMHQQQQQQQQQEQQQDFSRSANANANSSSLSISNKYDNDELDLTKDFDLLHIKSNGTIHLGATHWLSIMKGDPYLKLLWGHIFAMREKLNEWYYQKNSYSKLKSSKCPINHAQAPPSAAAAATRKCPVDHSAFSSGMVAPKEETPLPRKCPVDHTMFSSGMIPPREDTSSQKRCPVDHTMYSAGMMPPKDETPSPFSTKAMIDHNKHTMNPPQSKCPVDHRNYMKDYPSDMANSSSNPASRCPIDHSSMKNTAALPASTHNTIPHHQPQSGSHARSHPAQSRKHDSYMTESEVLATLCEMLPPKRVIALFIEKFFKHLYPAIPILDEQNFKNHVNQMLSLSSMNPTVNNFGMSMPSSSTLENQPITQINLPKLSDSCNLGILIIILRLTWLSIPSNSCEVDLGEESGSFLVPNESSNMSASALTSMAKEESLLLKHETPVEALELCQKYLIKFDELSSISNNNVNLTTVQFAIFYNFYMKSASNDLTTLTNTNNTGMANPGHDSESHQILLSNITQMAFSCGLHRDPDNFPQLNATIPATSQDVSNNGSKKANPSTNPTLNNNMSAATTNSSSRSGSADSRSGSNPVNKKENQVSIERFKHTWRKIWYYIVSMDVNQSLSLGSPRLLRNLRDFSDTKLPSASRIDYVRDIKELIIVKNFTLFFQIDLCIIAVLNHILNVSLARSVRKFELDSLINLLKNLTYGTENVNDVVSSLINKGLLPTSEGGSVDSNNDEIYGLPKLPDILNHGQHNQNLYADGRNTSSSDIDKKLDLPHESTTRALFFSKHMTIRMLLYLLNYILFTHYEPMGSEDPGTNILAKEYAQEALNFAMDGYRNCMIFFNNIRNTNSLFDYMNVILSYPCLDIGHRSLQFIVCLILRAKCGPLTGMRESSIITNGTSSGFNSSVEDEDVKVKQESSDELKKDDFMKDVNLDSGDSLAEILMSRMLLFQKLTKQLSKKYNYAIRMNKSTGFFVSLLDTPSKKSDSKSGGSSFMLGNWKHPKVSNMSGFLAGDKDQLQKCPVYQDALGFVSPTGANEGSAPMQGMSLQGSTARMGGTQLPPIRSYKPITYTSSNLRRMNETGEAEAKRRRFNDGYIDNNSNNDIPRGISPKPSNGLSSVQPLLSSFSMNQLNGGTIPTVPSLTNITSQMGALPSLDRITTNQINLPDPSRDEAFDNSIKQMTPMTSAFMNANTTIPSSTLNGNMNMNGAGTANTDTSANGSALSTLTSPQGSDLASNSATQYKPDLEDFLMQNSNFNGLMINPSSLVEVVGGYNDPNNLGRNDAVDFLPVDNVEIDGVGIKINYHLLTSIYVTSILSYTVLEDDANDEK
Summary of the method: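 E-scores (a modified Wilcoxon-Mann-Whitney statistic) were assigned by the Universal PBM Analysis Suite to every ungapped eight-base word pooled with its reverse complement. The input came from universal all-10-mer Agilent arrays made double-stranded by primer extension and probed with GST-tagged yeast transcription factors at about 100-200 nM. Fluorescent anti-GST detected bound protein, and masliner normalised the scans.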

Sequence | PBM E-score
CACATATC | -0.0269
ATCTGAGA | -0.25
ATTCTACC | -0.0572
GATGACCA | -0.0481
GATCATAC | 0.021
AGGAATGG | -0.227
AGACTTCC | -0.105
AATACACC | 0.159
CGACCTAG | -0.0285
GCTTGAAA | -0.0416
GCGCTTCC | 0.149
ATAACGTC | 0.0738
GGCAGACA | 0.0194
GCCCCAAA | -0.119
TCGCTTCA | -0.0728
CTTTGTCA | -0.0951
ACCGCAAG | 0.139
AAGGCGGG | -0.00881
CTCAGCCC | -0.232
GTCGCTCA | -0.0885
TCCTTCAA | -0.18
ACGATGTG | -0.0816
TCCATCCA | -0.214
AGCTACGA | -0.161
CATTCTCC | 0.0191

Sequence | PBM E-score
CGATTTTC | 0.147
ACGCGTCG | 0.185
CGCGTGTA | -0.0294
CCTAGTCC | -0.033
TCTGTACA | -0.00729
AGATCTGA | -0.221
ACGTAAAG | -0.171
AGTATTGA | -0.215
CCTCTGCG | -0.16
AAACGACA | -0.19
CGAATTGA | 0.037
GATTGCAC | 0.0112
CTCCACCC | -0.119
TGTGAAAA | -0.223
ACATATAG | -0.101
AAGGAACT | -0.00211
GATCAGGA | -0.103
GATAGATA | 0.101
AAGATGGT | -0.144
ACAGGACT | -0.0742
AGGGGTAA | -0.351
CGAGGCGC | 0.135
AACACCGG | 0.409
AACCGGGG | 0.301
AATGACGC | -0.0995

Sequence | PBM E-score
GACGCGCA | 0.0824
ATCGAGAG | -0.0935
AGTGAGCA | -0.28
CGACGCGC | 0.192
CGAACCGC | 0.188
TATCATAA | -0.104
CTTGTGCA | -0.164
AGAGCGTA | 0.0207
TACGATGA | -0.175
ACCCTACC | -0.00602
CCTGTAGC | -0.0416
GCCTTAAC | -0.0709
CTCTGGGC | -0.0926
TGGACAAA | -0.0825
CCACTGAC | -0.186
CCGTTTCG | 0.286
CGCACCGA | 0.0479
ACAGTTCG | 0.145
AATTCGAC | -0.342
CGTTGCAC | 0.065
GATATCAC | 0.0464
ACCCCCCG | 0.226
ACTATTTC | 0.18
GACTAGTA | -0.0995
GGCCAGCC | -0.0464

Sequence | PBM E-score
CACTGTCG | 0.00621
ACAAGCTC | 0.0249
CGAAGGAC | 0.0895
ATTTATTA | 0.129
TTTGAAAA | -0.171
AATCAGAA | -0.0191
AATTTGAG | -0.216
ATCTCCAT | 0.082
GGACTGAC | 0.0614
CAGAGCTA | -0.27
AAAAGATT | 0.0312
CGCACAAG | -0.0355
GGTGCCTA | -0.0281
CAATACAA | -0.123
CACATTTC | 0.144
CAGGGAGC | -0.271
CATAACTA | 0.0324
GAGGAGAA | -0.0449
CGGGTACG | 0.0983
CTTAGCCA | -0.199
CTCAGTGC | -0.0144
CCAGACTA | -0.327
CCCCCCAC | -0.203
TACATGTA | -0.00095
CCAATTAG | -0.108

Sequence | PBM E-score
ATGGGACC | -0.118
AGTAACAC | -0.00649
CTCGGGAA | 0.306
CTAGCGCA | -0.254
CCGATCAA | 0.195
GGATGAAC | 0.129
CCCTAAAA | -0.0256
GTCGGCCA | 0.165
ACCAAGCG | 0.0447
ACGGCACA | -0.0818
AACGGACT | 0.337
ACATCCAA | -0.173
GTCCTCCA | -0.034
GTTTATTA | 0.219
CCTAGGAG | -0.216
ATCGGAAG | 0.236
TAATAGTA | 0.0798
GGGCGGAA | 0.267
AAGTAGTG | -0.0883
ATTGTTGA | -0.174
ATAACACA | -0.24
ATGCAAGC | -0.1
GGTAGCAA | -0.17
AGTTAGAC | 0.0109
ATAGATCA | -0.13

Sequence | PBM E-score
CTGGCAAC | -0.119
AGTCAGAA | -0.167
TATCTAGA | -0.24
CGGCACAC | 0.103
ACAGCCTG | -0.221
CATGATGG | -0.328
GAAGCAGC | -0.0657
AGGTAGCC | -0.142
CATCGGCC | 0.317
CATATTGC | -0.0347
ATCTAATC | 0.038
CTTGAGTA | 0.0976
ACAGAAGG | -0.226
CTAGTAAG | -0.205
ACGCTACT | 0.108
ATTTATAA | 0.104
CAGGCAGC | -0.07
AGATCATC | -0.0799
ACGAAGAG | -0.215
AGAGCTAA | -0.157
CCGGATGC | 0.26
AAGGAGAA | -0.103
ATAGTTGA | -0.0113
ATACTCTG | -0.0685
ACCCAACA | -0.0786

Sequence | PBM E-score
CTTGATTC | -0.117
ATATGAGA | 0.0229
CCCATTAG | -0.355
ACTAATTG | 0.0402
ACGTCGAG | -0.282
GAACGTGC | -0.131
GAGAGTGC | -0.219
CGTGCAAA | -0.0966
GGCAAACA | -0.0204
CCAGATCC | 0.0814
GGGCACAA | -0.0367
ACGGTCCG | 0.316
GTCGAAGA | -0.0506
CGTAGACG | -0.0296
CGACGTAC | -0.0281
AACAACTC | -0.19
CGCCCTAC | -0.13
GCGTGTAA | -0.108
TCATATAA | -0.158
TAAATTCA | -0.165
CCACCAGA | -0.324
GTACATCA | 0.019
